# Measurements published in the supplement of paper PMC8728848.
# Some of the results follow.
# What was measured:
# Test in all cases: glycan array binding signal (z-score within array); higher = stronger binding
# Details in all cases: glycan notation: IUPAC condensed, linker removed
# [1] = target: Fuc(a1-2)[GalNAc(a1-3)]Gal(b1-4)[Fuc(a1-3)]GlcNAc
# Procedure, shortened: (§1)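 Glycan array data were curated from 3228 arrays in the Consortium for Functional Glycomics database and kept only where the protein sequence was available. Glycan names were converted to IUPAC-condensed notation, and columns mapping to the same glycan were averaged. The binding signal is a within-array Z-score, averaged across arrays of the same protein sequence at different concentrations or buffers and across linkers. Negative Z-scores can be read as non-binding.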
# [2] = target: Fuc(a1-2)[GalNAc(a1-4)]Gal(b1-4)GlcNAc
# Procedure, shortened: as §1
# [3] = target: Fuc(a1-2)[GalNAc(b1-3)]Gal
# Procedure, shortened: as §1
# [4] = target: Fuc(a1-3)GlcNAc
# Procedure, shortened: as §1
# [5] = target: Fuc(a1-3)[Gal(b1-4)]Glc6S
# Procedure, shortened: as §1
# [6] = target: Fuc(a1-3)[Gal(b1-4)]GlcNAc
# Procedure, shortened: as §1
# [7] = target: Fuc(a1-3)[Gal(b1-4)]GlcNAc(b1-2)Man(a1-3)[Fuc(a1-3)[Gal(b1-4)]GlcNAc(b1-2)Man(a1-6)]Man(b1-4)GlcNAc(b1-4)GlcNAc
# Procedure, shortened: as §1
# [8] = target: Fuc(a1-3)[Gal(b1-4)]GlcNAc(b1-2)Man(a1-6)[Gal(b1-4)GlcNAc(b1-2)Man(a1-3)]Man(b1-4)GlcNAc(b1-4)GlcNAc
# Procedure, shortened: as §1
# [9] = target: Fuc(a1-3)[Gal(b1-4)]GlcNAc(b1-3)Gal(b1-3)[Fuc(a1-4)]GlcNAc
# Procedure, shortened: as §1
# [10] = target: Fuc(a1-3)[Gal(b1-4)]GlcNAc(b1-4)Gal(b1-4)[Fuc(a1-3)]GlcNAc
# Procedure, shortened: as §1
# [11] = target: Fuc(a1-3)[Gal(b1-4)]GlcNAc(b1-4)Gal(b1-4)[Fuc(a1-3)]GlcNAc(b1-4)Gal(b1-4)[Fuc(a1-3)]GlcNAc
# Procedure, shortened: as §1
# [12] = target: Fuc(a1-3)[Gal(b1-4)]GlcNAc6S
# Procedure, shortened: as §1
# [13] = target: Fuc(a1-3)[Gal3S(b1-4)]Glc6S
# Procedure, shortened: as §1
# [14] = target: Fuc(a1-3)[Gal3S(b1-4)]GlcNAc
# Procedure, shortened: as §1
# [15] = target: Fuc(a1-3)[Gal3S(b1-4)]GlcNAc6S
# Procedure, shortened: as §1
# [16] = target: Fuc(a1-3)[GalNAc(b1-4)]GlcNAc
# Procedure, shortened: as §1
# [17] = target: Fuc(a1-4)GlcNAc
# Procedure, shortened: as §1
# [18] = target: Fuc(b1-3)GlcNAc
# Procedure, shortened: as §1
# [19] = target: Gal(a1-2)Gal
# Procedure, shortened: as §1
# [20] = target: Gal(a1-3)Gal
# Procedure, shortened: as §1
# [21] = target: Gal(a1-3)Gal(b1-3)GlcNAc
# Procedure, shortened: as §1
# [22] = target: Gal(a1-3)Gal(b1-4)Glc
# Procedure, shortened: as §1
# [23] = target: Gal(a1-3)Gal(b1-4)GlcNAc
# Procedure, shortened: as §1
# [24] = target: Gal(a1-3)Gal(b1-4)[Fuc(a1-3)]GlcNAc
# Procedure, shortened: as §1
# [25] = target: Gal(a1-3)GalNAc
# Procedure, shortened: as §1
# [26] = target: Gal(a1-3)[Gal(a1-4)]Gal(b1-4)GlcNAc
# Procedure, shortened: as §1
# [27] = target: Gal(a1-4)Gal(b1-4)Glc
# Procedure, shortened: as §1
# [28] = target: Gal(a1-4)Gal(b1-4)GlcNAc
# Procedure, shortened: as §1
# [29] = target: Gal(a1-4)GlcNAc
# Procedure, shortened: as §1
# [30] = target: Gal(a1-6)Glc
# Procedure, shortened: as §1
binder,measurement,setting,value
"P-Selectin (Homo sapiens), P16109 (protein) MANCQIAILYQRFQRVVFGISQLLCFSALISELTNQKEVAAWTYHYSTKAYSWNISRKYCQNRYTDLVAIQNKNEIDYLNKVLPYYSSYYWIGIRKNNKTWTWVGTKKALTNEAENWADNEPNNKRNNEDCVEIYIKSPSAPGKWNDEHCLKKKHALCYTASCQDMSCSKQGECLETIGNYTCSCYPGFYGPECEYVRECGELELPQHVLMNCSHPLGNFSFNSQCSFHCTDGYQVNGPSKLECLASGIWTNKPPQCLAAQCPPLKIPERGNMTCLHSAKAFQHQSSCSFSCEEGFALVGPEVVQCTASGVWTAPAPVCKAVQCQHLEAPSEGTMDCVHPLTAFAYGSSCKFECQPGYRVRGLDMLRCIDSGHWSAPLPTCEAISCEPLESPVHGSMDCSPSLRAFQYDTNCSFRCAEGFMLRGADIVRCDNLGQWTAPAPVCQALQCQDLPVPNEARVNCSHPFGAFRYQSVCSFTCNEGLLLVGASVLQCLATGNWNSVPPECQAIPCTPLLSPQNGTMTCVQPLGSSSYKSTCQFICDEGYSLSGPERLDCTRSGRWTDSPPMCEAIKCPELFAPEQGSLDCSDTRGEFNVGSTCHFSCDNGFKLEGPNNVECTTSGRWSATPPTCKGIASLPTPGLQCPALTTPGQGTMYCRHHPGTFGFNTTCYFGCNAGFTLIGDSTLSCRPSGQWTAVTPACRAVKCSELHVNKPIAMNCSNLWGNFSYGSICSFHCLEGQLLNGSAQTACQENGHWSTTVPTCQAGPLTIQEASTSITAYKSEGESAEFSFPLNLGEESLQGELRWKAEKAPSSQSWITFSLKNQKVSVQKSTSNPKFQLSETLPLTLQIPQVSLQFAGSGNLTLTLDRGILYQEVNLVVMKVTQPDSNTLTCEVMGPTSPKMRLILKQENQEARVSRQEKVIQVQAPEAGVWQCLLSEGEEVKMDSKIQVLSKGLNSGGGSGGGTGGGDLAPQMLRELQETNAALQDVRELLRQQVKEITFLKNTVMECDACGLDRNLPPLAPLGPHPETLVKVKDAEDQLGARVGYIELDLNSGKILESFRPEERFPMMSTFKVLLCGAVLSRIDAGQEQLGRRIHYSQNDLVEYSPVTEKHLTDGMTVRELCSAAITMSDNTAANLLLTTIGGPKELTAFLHNMGDHVTRLDRWEPELNEAIPNDERDTTMPVAMATTLRKLLTGELLTLASRQQLIDWMEADKVAGPLLRSALPAGWFIADKSGAGERGSRGIIAALGPDGKPSRIVVIYTTGSQATMDERNRQIAEIGASLIKHWGPDYKDHDGDYKDHDIDYKDDDDKGPHHHHHH",glycan array binding signal (z-score),[1],0.749
same,glycan array binding signal (z-score),[2],-0.222
same,glycan array binding signal (z-score),[3],0.099
same,glycan array binding signal (z-score),[4],-0.438
same,glycan array binding signal (z-score),[5],0.039
same,glycan array binding signal (z-score),[6],-0.195
same,glycan array binding signal (z-score),[7],-0.157
same,glycan array binding signal (z-score),[8],-0.533
same,glycan array binding signal (z-score),[9],-0.252
same,glycan array binding signal (z-score),[10],-0.287
same,glycan array binding signal (z-score),[11],-0.461
same,glycan array binding signal (z-score),[12],-0.008
same,glycan array binding signal (z-score),[13],0.611
same,glycan array binding signal (z-score),[14],-0.026
same,glycan array binding signal (z-score),[15],1.4
same,glycan array binding signal (z-score),[16],-0.262
same,glycan array binding signal (z-score),[17],-0.307
same,glycan array binding signal (z-score),[18],-0.377
same,glycan array binding signal (z-score),[19],-0.189
same,glycan array binding signal (z-score),[20],-0.179
same,glycan array binding signal (z-score),[21],-0.405
same,glycan array binding signal (z-score),[22],0.321
same,glycan array binding signal (z-score),[23],-0.39
same,glycan array binding signal (z-score),[24],-0.336
same,glycan array binding signal (z-score),[25],-0.071
same,glycan array binding signal (z-score),[26],-0.514
same,glycan array binding signal (z-score),[27],-0.252
same,glycan array binding signal (z-score),[28],-0.285
same,glycan array binding signal (z-score),[29],-0.061
same,glycan array binding signal (z-score),[30],-0.187
